Hit rate of the full screen: of about 48,000 compounds, about 120 (0.25%) were called active. About 4% were inconclusive and are not listed. The call rests on the fitted dose curve; in most records, active means well fitted activation curve with a large enough effect; inconclusive means small, poorly fitted or top-dose-only effect, or another doubt; inactive means no such curve, though single readings can be large or run the other way. The list shows a part of the results.
test: Primary qHTS for Identification of Small Molecule Activators of Huntingtin-Antisense Promoter Activity; details: HEK293 HTT-AS promoter firefly luciferase reporter, 24 h; series mostly up to 57.5 µM; activity change, positive = activation: at the top concentration; further: nearly all actives have a fitted effect of over 55% in size
Outline: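 HEK293 luciferase promoter-reporter cells (2,500/well) plated 24 h, then compounds added at up to 57.5 uM final for 24 h at 37 °C. Firefly luminescence by Dual-Glo, normalized to vehicle (0%) and zero RLU (-100%).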

Activity change, positive = activation, inactive:
COc1ccc(C(=O)N2CCN(CC(=O)N3CCOCC3)CC2)cc1 -1.95%
COc1ccc(OC)c(NC(=O)CCNS(=O)(=O)c2ccc3c(c2)oc(=O)n3C)c1 -5.49%
CCOc1ccccc1C(=O)NCc1nc2cccnc2n1Cc1ccc(C)cc1 -24.6%
CCOc1cc(CNC(=O)c2ccc3c(c2)N(C)C(=O)C2CCCCN32)ccc1OC (centres undefined) -5.94%
O=C(CNC(=O)c1ccc(F)cc1)OCc1cc(=O)n2nc(C3CCCCC3)sc2n1 0.512%
COc1ccc(OC)c(NC(=O)CN2CCCN(Cc3ccccc3Cl)S2(=O)=O)c1 -25.4%
CN1CCC(COc2cnc(-c3cccc(Cn4nc(-c5cccc(C#N)c5)ccc4=O)c3)nc2)CC1 -43%
Cc1ccc(N2CCN(C(=O)c3cnn(-c4ccc(C)c(C)c4)c3C3CCNCC3)CC2)c(C)c1 -22%
Cc1ccc(-n2ncc3c(NC4CCCCC4)ncnc32)cc1Cl -28%
COc1ccc(CNC(=O)CCCn2nc(C)c3c(C)n(-c4ccc(C)cc4)nc3c2=O)cc1OC -5.77%
O=C(c1ccc2c(Cl)c3c(nc2c1)CCCC3)N1CCN(c2cccc(C(F)(F)F)c2)CC1 -14.4%
CCN(c1ccccc1)c1nnc(NC(=O)Nc2ccc(Br)c(C)c2)s1 0.13%
O=C(CSc1nccn1Cc1ccco1)Nc1cc(C(F)(F)F)ccc1Cl -6.18%
O=C(CN1C(=O)COc2ccc(S(=O)(=O)N3CCCCCC3)cc21)N1CCN(c2ccccc2F)CC1 -15.7%
CCOc1ccc(CNC(=O)CCS(=O)(=O)c2cc3c4c(c2)CCN4C(=O)CC3)cc1OC -8.01%
CC(C)c1cc(C(=O)N2Cc3ccc(CN4CCN(C)CC4)cc3C2)c(O)cc1O -58.4%
Cc1ccc(S(=O)(=O)c2cn(C)c3cc(N4CCCCCC4)c(F)cc3c2=O)cc1 -9.35%
Cc1ccccc1NC(=O)c1ccc2nc(Cc3ccccc3)oc2c1 12.2%
CC(=O)c1ccc(NS(=O)(=O)c2cc(-c3cnc(C4CC4)o3)ccc2C)cc1 -34.8%
O=C(CCSCc1cnn(-c2ccccc2)c1-n1cccc1)NCc1ccccc1F -33.3%
CCOc1ccc(NC(=O)c2cc3c(-c4ccccc4F)nn(C)c3s2)cc1 -3.21%
COc1ccccc1C(=O)Nc1c(C(=O)N(CCN(C)C)Cc2ccco2)oc2ccccc12 -23.8%
Cc1ccc(Cn2c(=O)n(-c3ccccc3)c(=O)c3ccc(C(=O)NCc4ccco4)cc32)cc1 -19.5%
C=Cc1ccc(Cn2c(C(=O)O)c(CNCc3cccs3)c3ccc(C)cc32)cc1 -40.8%
Cn1c(SCc2ccc(F)cc2)nc2c([nH]c3ccccc32)c1=O -11.4%
COc1cccc(CNC(=O)C2CCN(c3nc4ccc(Cl)cc4[nH]3)CC2)c1 -22%
CCCCc1cc(=O)oc2cc(C)c3c(C)coc3c12 -12.4%
CSc1ncc(Cl)c(C(=O)Nc2ccc(S(=O)(=O)N3CCC(C)CC3)cc2)n1 -26.4%
CCOC(=O)c1cccc(NC(=O)c2ccc3c(c2)nnn3C2CCCC2)c1 -0.939%
Cc1ccc(C2c3c(-c4ccccc4O)n[nH]c3C(=O)N2CCCO)cc1 (centres undefined) -33.4%
O=C(NCCn1cc(SCc2ccc(F)cc2)c2ccccc21)c1c(F)cccc1F -31.2%
Cn1cnc(S(=O)(=O)N2CCCC(C(=O)Nc3ccc(F)cc3Cl)C2)c1 (centres undefined) -11.6%
Cc1ccc(Cn2c(C(=O)Nc3cccc(Cl)c3)cc3sccc32)cc1 -15.4%
Cn1nnnc1SCCNCc1ccccc1OCc1ccccc1F -27.7%
COc1cc(C(=O)NC2CCCNC2)cc(OC)c1OC (centres undefined) 2.57%
COc1ccc2c(c1)CC(NC(=O)Nc1cc(Cl)ccc1OC)CO2 (centres undefined) -28.1%
CSc1nc(C)cc(Nc2c(C)cc(C)cc2C)n1 -14.7%
COc1cccc(C(=O)Nc2ccc(Cl)c(-c3nc4ccccc4[nH]3)c2)c1 -22%
CCc1ccc(OCCCSc2nc(-c3ccc(C(C)(C)C)cc3)nc3cc(=O)[nH]n23)cc1 -16.9%
CC(=O)c1ccc(N2CCN(S(=O)(=O)c3ccc4c(c3)CC(C)N4C(=O)C3CCC3)CC2)cc1 (centres undefined) -20.1%
COC(=O)c1ccc(NS(=O)(=O)c2ccc(-n3cccn3)cc2)cc1 -18.5%
CC1=C(C(=O)Nc2ccccc2C)C(c2ccncc2)n2nc(SCc3ccccc3)nc2N1 (centres undefined) -5.48%
CCN1CCN(c2cc(C)c3cc(NC(=O)c4cccc(C(F)(F)F)c4)ccc3n2)CC1 0.383%
COc1cccc(CSc2nc3n(n2)C(c2cccs2)C(C(=O)Nc2ccccc2C)=C(C)N3)c1 (centres undefined) -5.25%
COc1cn(CC(=O)Nc2ccc(F)cc2)c(CN2CCCCC2)cc1=O -6.65%
CCOC(=O)c1c(N)n(-c2ccc(Cl)c(Cl)c2)c2nc3ccccc3nc12 -6.71%
Cc1cccc(Cn2c(CN3CCC(C(=O)NCc4cccnc4)CC3)cc3ccccc32)c1 -22.9%
Cc1ccc(NC(=O)Cn2c(=O)n(-c3ccc(Cl)c(Cl)c3)c(=O)c3c(C)c(C)sc32)c(C)c1 1.71%
CCOC(=O)c1ccc(NC(=O)CC2C(=O)N(c3cccc(OC)c3)C(=O)N2C2CCCCC2)cc1 (centres undefined) -15.5%
Cc1ccc(OCCn2cc(C(=O)C3CCCCC3)c3ccccc32)cc1 -30.4%
CCOC(=O)c1c(C)oc2nc(C)nc(N3CCN(c4ccc(C(C)=O)cc4)CC3)c12 19.7%
CC(C)(C)OC(=O)N1CCC(c2c(C(=O)NCc3ccc(F)cc3)cnn2-c2ccc(F)cc2)CC1 -2.49%
COc1cccc(C(=O)N(Cc2sccc2C)C2CCS(=O)(=O)C2)c1 (centres undefined) -7.71%
COc1ccc(C(=O)Nc2cc(-c3cccc(C)c3)nn2-c2ccccc2)cc1 -0.403%
CCN(CC)CCNC(=O)c1sc2nc3n(c(=O)c2c1C)CCCCC3 -1.58%
COc1ccc(OCC2c3cc(OC)c(OC)cc3CCN2C(=O)c2ccc(F)cc2)cc1 (centres undefined) -18.5%
COc1ccc2cc3cc(C(=O)N4CCN(c5ccc(C(C)=O)cc5)CC4)sc3nc2c1Cl -18.4%
Cc1ccc(-c2cn3c(n2)sc2cc(C(=O)NCCCN4CCCCC4)ccc23)cc1 -51.3%
O=S(=O)(NCc1nc2cccnc2n1Cc1ccc(F)cc1)c1ccc2c(c1)CCCC2 -26.2%
CCCC(=O)O[C@]1(C(=O)CC)CC[C@H]2[C@@H]3CCC4=CC(=O)CC[C@]4(C)[C@H]3[C@@H](O)C[C@@]21C -12.1%
O=S(=O)(NCCc1csc2nc(-c3ccc(F)cc3)nn12)c1ccc(Br)cc1 -29.7%
Cc1cc(NC(=O)Cn2c(=O)nc(-c3ccccc3F)c3cc(Cl)ccc32)ccc1Br -21.9%
Cc1ccc(C)c(NC(=O)Cn2cc(C(=O)C3CCCCC3)c3ccccc32)c1 -27.5%
O=C(c1ccc2c(c1)N(Cc1cccc(Cl)c1)C(=O)c1ccccc1S2(=O)=O)N1CCCCC1 -30.3%
Cc1ccc2[nH]c3c(=O)n(CC(=O)N(C)c4cc(Cl)ccc4C)ncc3c2c1 -33.4%
COc1cccc(NC(=O)c2oc3ccccc3c2NC(=O)c2ccc(C(F)(F)F)cc2)c1 21.2%
O=C(CN1CCCN(Cc2ccc(Cl)cc2)S1(=O)=O)Nc1ccccc1F -10.9%
COc1cccc2c1Oc1ncccc1N(C(=O)CCC(=O)NCc1ccc(N(C)C)cc1)C2 -5.08%
COc1ccc(-n2c(=O)c3c4c(sc3n(Cc3ccccc3)c2=O)CN(C(C)=O)CC4)cc1OC -26.2%
CCOC(=O)c1c(C)[nH]c(C)c1S(=O)(=O)N1CCC(C(=O)N2CCN(c3ccc(Cl)cc3)CC2)CC1 -12.5%
CC1=C(c2ccc(C)c(C)c2)S(=O)(=O)N=C1N1CCC(C(=O)NCCc2ccc(Cl)cc2)CC1 -30.6%
CCOc1ccc(NC(=O)N2CC=C(c3c[nH]c4ccccc34)CC2)cc1 -20.4%
O=C1NC(=O)C(=Cc2cccc(C(F)(F)F)c2)S1 2.54%
COC(=O)c1ccc(Cl)cc1NC(=O)N1CCCn2nc(C)cc21 -3.65%
COc1cc(OC)c(NC(=O)CCCn2nc(C)c3sc4ccccc4c3c2=O)cc1Cl -14.9%
COc1nc(-c2ccc(C)cc2)ccc1-c1noc(-c2ccccc2Br)n1 -6.81%
CCCCOC(=O)CSc1nnc(-c2ccccc2)o1 13.3%
Cc1ccc(C)c(N2CCN(C(=O)CN3CCSc4ccc(S(=O)(=O)N(C)C)cc43)CC2)c1 -19.7%
O=c1c2cccnc2n(Cc2ccccc2F)c(=O)n1Cc1ccccc1Cl -7.26%
CC(=O)Nc1nonc1-c1nnc(SCC(=O)Nc2cc(C)cc(C)c2)n1C -7.81%
C[C@]12CC[C@@H]3c4ccc(O)cc4CC[C@H]3[C@@H]1CCC2=O -9.17%
Cc1oc2ncn(CC(C)C)c(=O)c2c1C(=O)N1CCN(c2ccc(F)cc2)CC1 -6.1%
COc1ccccc1CNc1ccc(-c2nc(C)no2)cc1[N+](=O)[O-] -4.76%
COc1cccc(NC(=O)/C(C#N)=C\c2cn(Cc3ccc(C)cc3)c3ccccc23)c1 -24.6%
O=C(c1ccc(C(F)(F)F)cc1)N1CCC(c2nc(-c3ccc(S(=O)(=O)N4CCCC4)cc3)no2)CC1 -29.4%
COc1ccc(-c2oc3ncn4nc(-c5ccccc5Br)nc4c3c2-c2ccc(OC)cc2)cc1 -3.5% [at 11.5 µM, percent change from vehicle, -100% = no light]
Cc1cccc(C)c1NC(=O)c1csc2c1CCCC2 -21.7%
Cc1ccc(NC(=O)Nc2nnc(SCC(=O)Nc3ccc(F)cc3F)s2)cc1 -10.4%
CCc1ccc(NC(=O)c2cc(S(=O)(=O)N3CCCCCC3)ccc2F)cc1 -26.2%
CCCCN1CC(c2nc3ccccc3n2CCCCOc2ccc(C)cc2C)CC1=O (centres undefined) -49.2%
O=C(NCCCc1nc2ccccc2n1Cc1cccc(Cl)c1)c1ccco1 -16.1%
O=C(c1cc(=O)c2cc(Cl)ccc2o1)N(Cc1ccccc1)C1CCS(=O)(=O)C1 (centres undefined) -5.33%
CC(=O)OCc1cnc(C)c2oc(=O)c(C(=O)Nc3cccc(F)c3)cc12 -5.65%
Cc1nc(N2CCCC2)c2c(C(=O)Nc3cccc(Cl)c3C)c(C)oc2n1 -24.4%
